According to article PMC6919601, “Identification of Plasmodium dipeptidyl aminopeptidase allosteric inhibitors by high throughput screening” (PLoS ONE, 2019):
Screen size: about 110,000 compounds; about 230 (0.21%) showed an effect of 50% or more. This is one part of the list.

These molecules were tested against DPAP1 (Plasmodium falciparum, UniProt Q8IIJ9) (assay: primary screen, percent inhibition; read by cleavage of a fluorogenic dipeptide substrate; higher = more effect of the substance).
Design: species or system P. falciparum D10 trophozoite lysates; single well
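Also: 30 min substrate incubation versus DMSO and 10 µM JCP410 controls.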

Sequence of DPAP1 (Q8IIJ9 whole entry, looked up): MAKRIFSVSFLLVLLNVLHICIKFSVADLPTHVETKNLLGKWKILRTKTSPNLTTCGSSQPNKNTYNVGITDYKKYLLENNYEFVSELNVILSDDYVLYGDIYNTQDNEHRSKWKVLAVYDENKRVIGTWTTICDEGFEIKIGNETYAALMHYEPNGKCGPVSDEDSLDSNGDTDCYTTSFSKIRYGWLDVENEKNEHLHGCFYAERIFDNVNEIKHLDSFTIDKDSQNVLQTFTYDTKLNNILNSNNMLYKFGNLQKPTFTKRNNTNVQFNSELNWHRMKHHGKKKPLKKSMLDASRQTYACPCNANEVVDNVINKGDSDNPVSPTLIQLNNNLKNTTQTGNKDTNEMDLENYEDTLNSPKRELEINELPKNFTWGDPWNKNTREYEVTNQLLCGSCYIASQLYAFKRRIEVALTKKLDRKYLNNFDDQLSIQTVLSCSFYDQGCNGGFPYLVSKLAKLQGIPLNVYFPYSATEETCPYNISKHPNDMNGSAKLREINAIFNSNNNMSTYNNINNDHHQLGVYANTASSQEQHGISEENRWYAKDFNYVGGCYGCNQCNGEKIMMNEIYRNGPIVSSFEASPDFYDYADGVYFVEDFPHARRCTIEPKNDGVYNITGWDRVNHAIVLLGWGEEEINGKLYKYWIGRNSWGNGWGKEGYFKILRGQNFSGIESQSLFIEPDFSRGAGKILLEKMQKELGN

First: CCC12CN3CC(C)(CN(C1)C3c1cn(Cc3ccccc3)c3ccccc13)C2=O (stereo not drawn)
Second: Oc1ccc2ccccc2c1CN1CCc2ccccc2C1
The “% Inhibition @ 10 uM” value of the first is lower: 0.401% for the first, 1.74% for the second.

Going from `O=S(=O)(c1ccc(Cl)cc1)N1CCOCC1` to `CC1CCN(S(=O)(=O)c2ccccc2[N+](=O)[O-])CC1`, the “% Inhibition @ 10 uM” value rises from -3.71% to -2.12%.

Going from `CCCCCCNC(=O)c1ccc(OCC)cc1` to `CCCCCc1ccc(C(=O)Cc2ccc(OCC)cc2)cc1`, the “% Inhibition @ 10 uM” value falls from 5.53% to 4.26%.

Compared with `COc1ccc(C(=O)Nc2ccc(Cl)cc2C(=O)N2CCCCC2C)cc1` (stereo not drawn), `COc1ccc(C(=O)Nc2ccc(C(=O)NCC3CCCO3)cc2)cc1OC` (stereo not drawn) is higher in “% Inhibition @ 10 uM” value: -0.984% for the first, 1.19% for the second.

Compared with `CCOc1ccc2nc(N3CCCC(C(=O)N4CCN(c5ccccn5)CC4)C3)sc2c1` (stereo not drawn), `CCN1CCN(C(=O)Cn2ncc3c4ccccc4n(Cc4ccc(F)cc4)c3c2=O)CC1` is lower in “% Inhibition @ 10 uM” value: 0.137% for the first, -1.58% for the second.

First: CCOC(=O)c1ccc(-c2sc3nc(N4CCOCC4)c4c(c3c2N)CC(C)(C)OC4)o1
Second: Cc1nc2c(C(=O)NCCCN3CCOCC3)cnn2c(O)c1Cc1ccc(F)cc1Cl
The “% Inhibition @ 10 uM” value of the first is higher: -1.06% for the first, -3.36% for the second.

Compared with `CCOCCCNC(=O)CN1C(=O)c2ccccc2S1(=O)=O`, `CCCCN(CCNC(=O)C1c2ccccc2C(=O)N(C)C1c1cccs1)Cc1ccco1` (stereo not drawn) is lower in “% Inhibition @ 10 uM” value: 2.42% for the first, 1.92% for the second.

First: CC(C)C(=O)NC(c1ccco1)c1ccc2cccnc2c1O (stereo not drawn)
Second: O=C(NCc1ccco1)c1cc(-c2ccccc2O)on1
The “% Inhibition @ 10 uM” value of the first is higher: 3.04% for the first, -10% for the second.

Compared with `COc1ccc(N(CC(=O)NCc2ccccc2Cl)S(C)(=O)=O)cc1Cl`, `COc1ccc(Cl)cc1NC(=O)c1c(-c2ccccc2Cl)noc1C` is lower in “% Inhibition @ 10 uM” value: 8.13% for the first, 1.43% for the second.

First: Cc1nc2c(C)c(-c3ccccc3)nn2c(O)c1C
Second: N#CCNC(=O)c1cc2nc(-c3ccccc3)cc(C(F)(F)F)n2n1
The “% Inhibition @ 10 uM” value of the first is lower: -3.85% for the first, 0.161% for the second.

First: CCOc1ccc(NC(=O)C2=C(C)NC(=O)NC2c2ccc(F)cc2)cc1 (stereo not drawn)
Second: O=C(Nc1ccc(F)cc1)Nc1ccc(Cl)c(Cl)c1
The “% Inhibition @ 10 uM” value of the first is lower: -2.18% for the first, 1.35% for the second.

Compared with `CCCCN(C)C(=O)c1c(C)nn(-c2ccc(F)cc2)c1-n1cccc1`, `Cn1nc(-c2ccc(F)cc2)nc2c(=O)n(C)c(=O)nc1-2` is lower in “% Inhibition @ 10 uM” value: 0.776% for the first, -1.11% for the second.

Going from `Cc1cc(NCCCN(C)C)nc2cc(Cl)ccc12` to `COc1ccc(CCNC(=O)c2cnc(SC)nc2C)c(OC)c1`, the “% Inhibition @ 10 uM” value rises from -3.74% to 1.6%.

Going from `c1ccc2c(-c3ccncc3)c[nH]c2c1` to `O=C(Nc1ccncc1)c1cccc(F)c1`, the “% Inhibition @ 10 uM” value rises from -7.7% to -2.27%.

Going from `Cc1cccc(Oc2nc3ccccn3c(=O)c2/C=C(\C#N)c2nc3ccccc3[nH]2)c1C` to `COc1ccc(N/C=C(/C#N)c2nc(-c3ccccc3)cs2)cc1`, the “% Inhibition @ 10 uM” value falls from 5.21% to 2.46%.

First: O=C(NCCN1CCCC1)c1sc2ccccc2c1Cl
Second: O=C(CSc1c2c(nc3ccccc13)CCCC2)NCCN1CCOCC1
The “% Inhibition @ 10 uM” value of the first is higher: 4.17% for the first, 2% for the second.

Going from `Cc1cccc(NC2=NC(=O)/C(=C\c3cccs3)S2)c1C` to `Cc1ccccc1NC(=O)CN1C(=O)S/C(=C/c2cccc(F)c2)C1=O`, the “% Inhibition @ 10 uM” value falls from 0.605% to -8.4%.

First: COc1ccc(NS(=O)(=O)c2ccc(NC(C)=O)cc2)nn1
Second: COc1ccc(N(CC(=O)NC2CCCCC2)S(=O)(=O)c2ccc(C)cc2)c(OC)c1
The “% Inhibition @ 10 uM” value of the first is lower: -3.93% for the first, 0.324% for the second.

First: COc1ccc(CCNC(=O)C2=Cc3sc(C)c(C)c3CS2)c(OC)c1
Second: COc1ccccc1-n1c(C)nc2cc(C(=O)NCc3ccc4c(c3)OCO4)ccc21
The “% Inhibition @ 10 uM” value of the first is lower: 0.107% for the first, 5.85% for the second.

First: CCN(CC)CCOC(=O)c1ccc(OC)cc1O
Second: CCc1nn(-c2cc(Oc3ccc(C)cc3)ncn2)c(N)c1C(N)=O
The “% Inhibition @ 10 uM” value of the first is lower: -1.68% for the first, 60.5% for the second.

Going from `O=C(CN1CC(=O)N2CCCC2C1=O)NCc1cccc(Cl)c1` (stereo not drawn) to `O=C(O)CN1C(=O)CC(Cc2ccc(Cl)cc2)C1=O` (stereo not drawn), the “% Inhibition @ 10 uM” value rises from 0.658% to 11.9%.

Going from `O=C(c1ccccc1/S(=N/S(=O)(=O)c1ccccc1)N1CCOCC1)N1CCOCC1` (stereo not drawn) to `Cc1ccc(N2NC(=O)/C(=C/c3ccc(N4CCOCC4)cc3)C2=O)cc1C`, the “% Inhibition @ 10 uM” value falls from -0.597% to -1.5%.

Compared with `COc1ccc(C2CC3=Nc4ccccc4NC(c4ccccn4)C3=C(O)C2)cc1` (stereo not drawn), `CC/C(=N\c1ccc(C)cc1)C1=C(O)CC(c2ccccc2)CC1=O` (stereo not drawn) is higher in “% Inhibition @ 10 uM” value: 2.69% for the first, 3.72% for the second.

First: S=C(NCc1cccs1)Nc1cccc(Cl)c1
Second: O=C(Nc1ccncc1)C1CCN(S(=O)(=O)c2cccc3nonc23)CC1
The “% Inhibition @ 10 uM” value of the first is lower: -3.09% for the first, 8.91% for the second.

Compared with `Brc1ccc(CNc2ccc(CNc3nc[nH]n3)cc2)cc1`, `COc1ccccc1CNC(=O)C1(NS(=O)(=O)c2cccc3cccnc23)CCCCC1` is higher in “% Inhibition @ 10 uM” value: -8.59% for the first, -6.07% for the second.

Going from `COc1ccccc1NC(=O)CC(C)(C)C` to `CCC[C@H](NC(=O)c1ccccc1)C(=O)NCC#N`, the “% Inhibition @ 10 uM” value falls from 6.1% to -0.214%.

First: O=C(O)CN(CC(=O)O)C1CS(=O)(=O)CC1O (stereo not drawn)
Second: CC1=C(C)CC(C(=O)c2ccc(C)cc2)C(C(=O)O)C1 (stereo not drawn)
The “% Inhibition @ 10 uM” value of the first is lower: -5.45% for the first, -2.47% for the second.

First: Cc1ccccc1Nc1nc2nonc2n2nnnc12
Second: Cc1ccc(-c2cc(-c3ccccc3)nc(OC(C)C)n2)cc1
The “% Inhibition @ 10 uM” value of the first is higher: 3.95% for the first, -4.18% for the second.

Compared with `OCC1CCCN(C2CC3CCC2C3)C1` (stereo not drawn), `CC(=O)N1CCN(C2CCC(C(C)(C)C)CC2)CC1` (stereo not drawn) is higher in “% Inhibition @ 10 uM” value: -5.11% for the first, 0.217% for the second.

First: CCOc1ccc2ccccc2c1C=C1C(=O)NC(=O)NC1=O
Second: O=c1ccc2cc3c(-c4ccc5ccccc5c4)coc3cc2o1
The “% Inhibition @ 10 uM” value of the first is lower: -4.43% for the first, -2.92% for the second.

First: Cc1ccc(C)c(OCCn2ccnc2)c1
Second: CCO/C(O)=C/C1=NC(C)(C)CC12C=CC(=O)c1ccccc12 (stereo not drawn)
The “% Inhibition @ 10 uM” value of the first is higher: 3.05% for the first, -0.703% for the second.

Going from `Cc1ccc2c(CN3CCN(C(=O)c4ccc(Cl)cc4)CC3)cc(=O)oc2c1` to `Cc1c(C(=O)N2CCCC2)oc2c1-c1nn(CC(=O)NC(C)CCc3ccccc3)cc1CC2` (stereo not drawn), the “% Inhibition @ 10 uM” value falls from 3.88% to 1.45%.

First: O=C1C2C3CCC(C3)C2C(=O)N1c1ccccc1O (stereo not drawn)
Second: O=C(CN1C(=O)CSc2ncccc21)NCCCN1CCCC1=O
The “% Inhibition @ 10 uM” value of the first is higher: -3.03% for the first, -7.93% for the second.
